Source: the supplement of paper PMC3334620
Over roughly 33,000 sequences, “E-score (-0.5 to 0.5)” has its median near -0.041; the highest 2% begin near 0.37. The list shows a part of the results.

The sequences below were run against T1, Ecm22 (UniProt Q05958) (assay: PBM E-score (8-mer binding enrichment) (E-score (-0.5 to 0.5)); higher = stronger / more preferred TF binding; most listed sequences are background and not binding sites). Details: protein concentration: 200 nM; construct: GST-full length.
T1 sequence: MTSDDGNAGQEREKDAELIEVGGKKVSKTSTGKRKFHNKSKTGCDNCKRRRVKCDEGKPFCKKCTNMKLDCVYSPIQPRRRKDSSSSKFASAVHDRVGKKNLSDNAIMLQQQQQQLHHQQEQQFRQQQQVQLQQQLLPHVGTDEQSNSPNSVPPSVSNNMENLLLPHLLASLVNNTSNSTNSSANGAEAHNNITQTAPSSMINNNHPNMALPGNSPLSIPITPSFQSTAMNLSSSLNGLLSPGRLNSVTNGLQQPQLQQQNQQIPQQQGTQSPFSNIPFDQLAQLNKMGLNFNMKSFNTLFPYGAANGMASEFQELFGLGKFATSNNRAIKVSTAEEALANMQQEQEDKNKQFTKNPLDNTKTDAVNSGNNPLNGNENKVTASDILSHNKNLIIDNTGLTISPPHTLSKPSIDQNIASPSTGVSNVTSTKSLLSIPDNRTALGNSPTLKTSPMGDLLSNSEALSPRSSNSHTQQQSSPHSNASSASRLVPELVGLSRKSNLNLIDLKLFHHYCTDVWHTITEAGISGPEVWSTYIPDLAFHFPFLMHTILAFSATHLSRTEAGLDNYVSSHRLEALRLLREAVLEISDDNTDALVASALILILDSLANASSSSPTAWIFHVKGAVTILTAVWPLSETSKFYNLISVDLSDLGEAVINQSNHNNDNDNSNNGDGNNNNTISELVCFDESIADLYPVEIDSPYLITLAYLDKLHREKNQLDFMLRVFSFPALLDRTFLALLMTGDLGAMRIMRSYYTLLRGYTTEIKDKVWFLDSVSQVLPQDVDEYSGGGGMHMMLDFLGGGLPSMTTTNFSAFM
How it was run: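 Using PURExpress in vitro transcription/translation, GST-tagged yeast transcription factors were made in full-length or DNA-binding-domain form. These were applied at about 100-200 nM to double-stranded universal all-10-mer Agilent arrays, and bound protein was detected with fluorescent anti-GST. Scans were normalised with masliner before the Universal PBM Analysis Suite assigned E-scores to ungapped eight-base words pooled with their reverse complements.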

Row | Sequence | PBM E-score
1 | ATAGCAGG | 0.0413
2 | AACTCAGG | -0.194
3 | CGCTGTAG | -0.136
4 | ACGCGGAG | 0.0454
5 | CGGTCCCC | 0.0268
6 | GACCAGAC | -0.0282
7 | AGGAGATA | -0.144
8 | GGGCCGTA | 0.333
9 | CTACGCAG | 0.0099
10 | CGTCTGGC | -0.0912
11 | ATCGCAGC | 0.088
12 | GCTGTAAA | -0.0512
13 | AAACGGGG | 0.361
14 | ATACACAA | 0.221
15 | CCGGCAGC | -0.288
16 | AGGCTCCG | 0.1
17 | GAATTTAA | 0.122
18 | GTCGCCAA | 0.0425
19 | TCACAACA | 0.0665
20 | AGGTACAG | -0.185
21 | AGTGGCTC | 0.153
22 | CATCTGTA | -0.0867
23 | AAGAACTA | -0.077
24 | CACCAACA | -0.158
25 | GATATTGA | -0.14

Row | Sequence | PBM E-score
26 | TCGAGTCA | -0.147
27 | TAGAAACA | -0.0127
28 | ATATGACA | 0.109
29 | CTACCACA | -0.265
30 | ATGTTGGG | -0.353
31 | CATGGCGA | -0.136
32 | CCACTCAA | 0.0203
33 | CCGCCTGC | -0.129
34 | GGGGGAGA | -0.222
35 | ATTCGACA | 0.0989
36 | AGCCGCGG | 0.19
37 | AGGACGGC | -0.114
38 | ACACCTTC | -0.0274
39 | GCTAGGCA | -0.326
40 | AGGAAGGA | -0.274
41 | CGGGTTCC | 0.1
42 | AACTGAAC | 0.157
43 | TACAGCAA | -0.0019
44 | AACCCTTA | -0.00342
45 | CCAGCTGA | -0.24
46 | CATAAAAC | -0.0347
47 | AAAATTCC | -0.197
48 | GATGCGAC | 0.2
49 | GTTTCCCA | -0.0496
50 | ACTTGCCT | -0.216

Row | Sequence | PBM E-score
51 | CACGAAGC | 0.0604
52 | CGCGGCAC | 0.0802
53 | CCGAGGAC | 0.207
54 | GAAACGTA | 0.221
55 | GTGGCGAA | 0.0222
56 | GAACAGCA | -0.083
57 | ACAGTCGT | 0.28
58 | AAGCGACT | 0.242
59 | GCTCAACA | -0.0472
60 | ATGACAAC | -0.0209
61 | TGCATAAA | 0.00876
62 | AGGACCTC | -0.0323
63 | GGTTGTCA | -0.195
64 | AAGACTCT | -0.0807
65 | ACGGGGTA | 0.188
66 | AGTTCCGA | 0.226
67 | ACTTCGTC | 0.00917
68 | GCATTTGA | 0.11
69 | CCGACTTC | -0.0231
70 | CTTGCTGA | -0.204
71 | CACCGCCC | 0.085
72 | CCTATAGG | -0.432
73 | ACACGGAT | 0.203
74 | CGAGTGTA | 0.262
75 | CGCGAGTC | 0.186

Row | Sequence | PBM E-score
76 | CTAGGACA | -0.321
77 | AAGCTTCA | -0.0703
78 | ACAATACT | -0.0129
79 | CTTAATCA | 0.016
80 | AACGTTGC | 0.121
81 | AGCAGCGA | 0.0533
82 | ACGACATA | 0.308
83 | GCAAACCC | 0.0386
84 | AAACGGGT | 0.319
85 | GTAAGGGA | -0.0737
86 | ATAGACGA | 0.174
87 | CCATGAAG | 0.0231
88 | GCGCGCCC | -0.172
89 | GCGCACTA | 0.0347
90 | AAGTGAAA | -0.129
91 | ACTATTGC | -0.0693
92 | CTACAACA | -0.103
93 | AGGATGTC | -0.112
94 | GAAACATA | 0.215
95 | CGATGACA | 0.082
96 | CTGGCGGA | -0.243
97 | CTAGCCCA | -0.374
98 | CGCTCACA | 0.18
99 | AGGACCTG | -0.128
100 | AGTTCAGA | -0.126

Row | Sequence | PBM E-score
101 | ATCAGCTA | -0.0785
102 | CCGTCTGA | -0.0597
103 | CCGTTTGA | 0.243
104 | ACTTAAGA | -0.057
105 | GTGCGGCA | -0.0606
106 | ACAATAGC | -0.16
107 | TCAGGAGA | -0.0607
108 | CCGTAACG | 0.28
109 | ACGGTATA | 0.118
110 | GAGGTAAA | 0.174
111 | GAGGGAAC | 0.126
112 | AACGTGTC | -0.00337
113 | GGAGAGCC | -0.0815
114 | CCGCTCAC | -0.123
115 | GCTTACAC | 0.0409
116 | ACGTTGGG | -0.134
117 | ATCCTGCC | -0.0749
118 | GGAACAAC | 0.0486
119 | GTCCGCGA | 0.0736
120 | ATCGCCGC | -0.104
121 | AAGGTGCC | -0.209
122 | GTTGATAA | 0.127
123 | GGCCTCCA | -0.23
124 | ACGGCTTC | 0.104
125 | GAGAATGA | 0.0633

Row | Sequence | PBM E-score
126 | CGACCACG | 0.257
127 | CTGCAGCC | 0.0309
128 | AAGCTGAA | -0.238
129 | GGAGCACC | -0.0878
130 | ACTTGCCG | -0.00724
131 | ATCGAGTG | 0.137
132 | AGTATGGC | -0.0838
133 | CTGACAAC | -0.206
134 | AGGTTTCG | 0.0268
135 | ATCAGGAC | -0.159
136 | GGACGGCA | -0.0901
137 | CGGATCGC | 0.12
138 | GTGTGACA | -0.117
139 | GGAAGGCA | -0.24
140 | CCATTTTA | 0.0645
141 | AATGCGCC | 0.0324
142 | CGTGGCCA | -0.162
143 | AACTTTCT | -0.201
144 | ATTTCTCC | -0.109
145 | ATAGTAGC | 0.127
146 | CTACTAGA | -0.0477
147 | CCCTTTAG | -0.319
148 | TAATGCAA | -0.185
149 | ATCTCTCC | -0.0913
150 | AAGACGAA | 0.059

Row | Sequence | PBM E-score
151 | CTAACCAG | -0.241
152 | CAAATATG | 0.0122
153 | GATCAATC | -0.0134
154 | GCCAACGC | -0.00897
155 | AAACAGGA | -0.137
156 | CAGCGCTG | -0.00531
157 | CCGTAGGA | -0.0721
158 | AAGTCTGT | -0.114
159 | CTACCGTA | 0.231
160 | ACCGTTTC | 0.187
161 | GACCGCCC | -0.0157
162 | CGGGTTGC | 0.0581
163 | ATACGAAG | 0.466
164 | AAATAAAC | 0.24
165 | CCGACAGC | 0.0258
166 | AGAGTCTC | -0.0866
167 | CCGCAATC | 0.06
168 | AGGGGATA | -0.0724
169 | CCTTAACA | -0.126
170 | ATTTAGTG | 0.0163
171 | CTACTCCC | -0.136
172 | ATGATATA | -0.0173
173 | AGGTGTAT | -0.0483
174 | ACGGTTAC | 0.255
175 | ATAGCACA | -0.00652

Row | Sequence | PBM E-score
176 | CTTGGGAC | -0.218
177 | CGTAAACG | 0.444
178 | ATACAAAT | 0.126
179 | TAATAGCA | -0.0182
180 | AGACGAAT | 0.0921
181 | ATTTCTTA | 0.155
182 | GCCCCCGA | -0.294
183 | ACTGTTGG | -0.282
184 | ATCTTCCG | 0.101
185 | ACCGATCT | -0.0191
186 | AAGCATCG | 0.128
187 | CGATGAAG | 0.0663
188 | GTGGAGAA | -0.121
189 | TACGCGTA | 0.237
190 | CCTTCGCA | 0.183
191 | GTTCCCTA | 0.232
192 | ACTACGAA | 0.25
193 | GCTACCTA | -0.156
194 | GTGATGCA | -0.0499
195 | AAACGGCC | 0.29
196 | CGGGTTGA | 0.0529
197 | CCTGGAAA | -0.139
198 | ACGCAACA | 0.107
199 | GATCACCA | -0.0271
200 | CTCAGCAC | -0.14

Row | Sequence | PBM E-score
201 | CACCAGCA | -0.028
202 | ATGGCTGG | -0.136
203 | ACATCCGT | 0.181
204 | CCGGGGTC | -0.056
205 | ATCAAGGC | 0.0443
206 | TGGTGTAA | -0.028
207 | CACTCCCA | -0.194
208 | AACTAAAA | -0.116
209 | AAACTACG | 0.201
210 | AACGTATA | 0.411
211 | CGCATGAG | -0.0679
212 | ATTACAAT | 0.0334
213 | ATTCGTCG | 0.135
214 | CGTTCGAA | 0.244
215 | CCCCTCGC | 0.162
216 | AATGCAGA | -0.0678
217 | GGACTACA | -0.249
218 | GCTGATAA | 0.0164
219 | CGGAAAAC | 0.141
